Laboratory results: PMC5577129
These are yes or no findings as the source states them, for the method shown. Some entries that bind do so weakly or less than the wild type. One block for each binder: values may come before it.

How the values were obtained:
Experiment in all cases: two-hybrid; Gal4 vector system (Clontech), pGBKT7 and pGADT7, yeast AH109; growth on SD/-Trp-Leu-His-Ade plates, 3 to 7 days, 30 °C; cells serially diluted
[1] = target: T1, AtPRD3 (Arabidopsis thaliana) (UniProt Q0WWX5)
T1 sequence: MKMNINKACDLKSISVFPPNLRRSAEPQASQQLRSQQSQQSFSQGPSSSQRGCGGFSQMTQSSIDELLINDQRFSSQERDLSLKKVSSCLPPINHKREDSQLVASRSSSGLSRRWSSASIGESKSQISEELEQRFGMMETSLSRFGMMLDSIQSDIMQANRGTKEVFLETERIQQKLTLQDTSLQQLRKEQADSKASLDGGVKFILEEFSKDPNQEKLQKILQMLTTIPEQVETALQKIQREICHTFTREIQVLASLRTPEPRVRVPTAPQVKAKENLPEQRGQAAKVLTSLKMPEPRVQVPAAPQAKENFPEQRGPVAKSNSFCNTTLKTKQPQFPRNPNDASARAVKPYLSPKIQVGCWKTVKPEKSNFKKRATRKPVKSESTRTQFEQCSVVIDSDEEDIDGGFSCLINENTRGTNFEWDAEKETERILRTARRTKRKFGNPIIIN

[2] = target: T2, AtDFO (Arabidopsis thaliana) (UniProt Q8RX33)
T2 sequence: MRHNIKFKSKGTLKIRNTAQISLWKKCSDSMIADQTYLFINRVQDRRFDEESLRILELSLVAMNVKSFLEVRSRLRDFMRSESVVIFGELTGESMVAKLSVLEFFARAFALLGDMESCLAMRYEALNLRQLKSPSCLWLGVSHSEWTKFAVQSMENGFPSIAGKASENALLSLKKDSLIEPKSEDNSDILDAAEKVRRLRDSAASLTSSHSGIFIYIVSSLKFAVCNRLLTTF

[3] = target: T3, AtSPO11-1 (Arabidopsis thaliana) (UniProt Q9M4A2)
T3 sequence: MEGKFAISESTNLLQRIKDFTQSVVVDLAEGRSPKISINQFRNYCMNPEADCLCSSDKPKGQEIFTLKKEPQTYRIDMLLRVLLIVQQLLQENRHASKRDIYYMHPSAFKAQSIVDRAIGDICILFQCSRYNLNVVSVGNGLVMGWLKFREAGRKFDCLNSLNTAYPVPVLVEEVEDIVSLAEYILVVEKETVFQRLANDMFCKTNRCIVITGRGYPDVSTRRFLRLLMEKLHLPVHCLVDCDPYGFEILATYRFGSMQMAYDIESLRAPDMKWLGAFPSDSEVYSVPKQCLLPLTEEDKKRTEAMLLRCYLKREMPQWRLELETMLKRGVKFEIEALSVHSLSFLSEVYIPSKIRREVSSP

[4] = target: T4, AtSPO11-2 (Arabidopsis thaliana) (UniProt Q9M4A1)
T4 sequence: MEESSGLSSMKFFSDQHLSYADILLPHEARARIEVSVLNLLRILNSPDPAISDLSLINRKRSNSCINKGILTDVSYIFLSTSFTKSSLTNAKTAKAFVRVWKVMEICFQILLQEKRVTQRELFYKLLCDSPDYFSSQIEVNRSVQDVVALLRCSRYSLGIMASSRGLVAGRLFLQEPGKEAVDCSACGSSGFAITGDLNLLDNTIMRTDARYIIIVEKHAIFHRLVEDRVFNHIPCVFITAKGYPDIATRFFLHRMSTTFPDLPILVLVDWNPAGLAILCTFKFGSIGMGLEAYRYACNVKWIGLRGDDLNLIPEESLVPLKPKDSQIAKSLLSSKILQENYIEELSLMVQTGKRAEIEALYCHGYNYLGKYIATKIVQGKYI

B1: AtPRD1-D (963–1109 aa) (domain or fragment, UniProt O23277 963-1109)
chain: VSNSYLVSAINTVVDVACSKGPALTQCQDETNIGEALAFTLLLYFFSLRSLQIVLAGAVDWQTFFGTSTSLETLPVVCIHCHNLCRLMHFGAPQIKLIASYCLLELLTGLSEQVDIKKEQLQCSSSYLKSMKAVLGGLVFCDDIRVA
- binding [1]: binds weakly
- binding [2]: binds weakly

B3: AtPRD1-A (1–388 aa) (domain or fragment, UniProt O23277 1-388)
chain: MFFQHSQLQNSDHLLHESMADSNHQSLSPPCANGHRSTISLRDDQGGTFCLICFSNLVSDPRIPTVHVSYALHQLSIAISEPIFLRTLLSSHIHFLVSPLVHALSSIDDAPIAIQIMDMISLLCSVEESSIGEDFVERISDQLSSGALGWSRRQLHMLHCFGVLMSCENININSHIRDKEALVCQLVEGLQLPSEEIRGEILFALYKFSALQFTEQNVDGIEVLSLLCPKLLCLSLEALAKTQRDDVRLNCVALLTILAQQGLLANSHSNSASSMSLDEVDDDPMQTAENVAARPCLNVLFAEAIKGPLLSTDSEVQIKTLDLIFHYISQESTPSKQIQVMVEENVADYIFEILRLSECKDQVVNSCLRVLDLFSLAEHSFRKRLVIG
- binding [3]: binds
- binding [4]: binds
- binding [1]: binds
- binding [2]: binds

B5: AtPRD1-C (813–962 aa) (domain or fragment, UniProt O23277 813-962)
chain: ISEGDNYAATLLVNLLTQLAEKEEQENDVISILNLMNTIVSIFPTASNNLSMNGIGSVIHRLVSGFSNSSLGTSFRTLLLLVFNILTSVQPAVLMIDESWYAVSIKLLNFLSLRDTAIKQNHEDMVVIGILSLVLYHSSDGALVEASRNI
- binding [3]: no binding
- binding [4]: no binding
- binding [1]: no binding
- binding [2]: no binding

B6: AtPRD1-B (389–812 aa) (domain or fragment, UniProt O23277 389-812)
chain: FPSVIRVLHYVGEVPCHPFQIQTLKLISSCISDFPGIASSSQVQEIALVLKKMLERYYSQEMGLFPDAFAIICSVFVSLMKTPSFGETADVLTSLQESLRHSILASLSLPEKDSTQILHAVYLLNEVYVYCTASTSINKTICIELRHCVIDVCTSHLLPWFLSDVNEVNEEATLGIMETFHSILLQNSDIQAKEFAELLVSADWFSFSFGCLGNFCTDNMKQRIYLMLSSLVDILLEQKTGSHIRDALHCLPSDPQDLLFLLGQASSNNQELASCQSAALLIFHTSSIYNDRLADDKLVLASLEQYIILNKTSLICAISDSPALLNLVNLYGLCRSLQNERYQISYSLEAERIIFHLLNEYEWDLGSINIHLESLKWLFQQESISKSLIYQIQKISRNNLIGNEVHNVYGDGRQRSLTYWFAKL
- binding [3]: no binding
- binding [4]: no binding
- binding [1]: no binding
- binding [2]: no binding

Continued, values first:

- binding [1]: binds
B2: AtPRD3 (protein, UniProt Q0WWX5 1-449)
chain: T1 sequence

- binding [3]: no binding
- binding [4]: no binding
- binding [1]: no binding
- binding [2]: no binding
B4: AtPRD1-E (1110–1330 aa) (domain or fragment, UniProt O23277 1110-1330)
chain: TNSALCLSMILGWEDMEGRTEMLKTSSWYRFIAEEMSVSLAMPCSASSTYVNHHKPAVYLTVAMLRLKNKPVWLRTVFDESCISSMIQNLNGINISREIVILFRELMQAELLNSQQVTKLDRAFQECRKQMHRNGTRDETVEEQVQRKIPSIHDHSEFCNYLVHLMVSNSFGHPSESETYTQKKKQILDEMEQFSELISTREGRVSPIQEETRQMQTERIV
